Among all 310,000 compounds or so, about 2,200 (0.71%) showed an effect of 50% or more. The effect is printed as a negative number. Some of the results follow.
molecular target: human ether-à-go-go-related gene (hERG) potassium channel (human, UniProt Q12809); assay: primary screen, population patch clamp on CHO cells stably expressing hERG
Sequence (Q12809 whole entry, looked up): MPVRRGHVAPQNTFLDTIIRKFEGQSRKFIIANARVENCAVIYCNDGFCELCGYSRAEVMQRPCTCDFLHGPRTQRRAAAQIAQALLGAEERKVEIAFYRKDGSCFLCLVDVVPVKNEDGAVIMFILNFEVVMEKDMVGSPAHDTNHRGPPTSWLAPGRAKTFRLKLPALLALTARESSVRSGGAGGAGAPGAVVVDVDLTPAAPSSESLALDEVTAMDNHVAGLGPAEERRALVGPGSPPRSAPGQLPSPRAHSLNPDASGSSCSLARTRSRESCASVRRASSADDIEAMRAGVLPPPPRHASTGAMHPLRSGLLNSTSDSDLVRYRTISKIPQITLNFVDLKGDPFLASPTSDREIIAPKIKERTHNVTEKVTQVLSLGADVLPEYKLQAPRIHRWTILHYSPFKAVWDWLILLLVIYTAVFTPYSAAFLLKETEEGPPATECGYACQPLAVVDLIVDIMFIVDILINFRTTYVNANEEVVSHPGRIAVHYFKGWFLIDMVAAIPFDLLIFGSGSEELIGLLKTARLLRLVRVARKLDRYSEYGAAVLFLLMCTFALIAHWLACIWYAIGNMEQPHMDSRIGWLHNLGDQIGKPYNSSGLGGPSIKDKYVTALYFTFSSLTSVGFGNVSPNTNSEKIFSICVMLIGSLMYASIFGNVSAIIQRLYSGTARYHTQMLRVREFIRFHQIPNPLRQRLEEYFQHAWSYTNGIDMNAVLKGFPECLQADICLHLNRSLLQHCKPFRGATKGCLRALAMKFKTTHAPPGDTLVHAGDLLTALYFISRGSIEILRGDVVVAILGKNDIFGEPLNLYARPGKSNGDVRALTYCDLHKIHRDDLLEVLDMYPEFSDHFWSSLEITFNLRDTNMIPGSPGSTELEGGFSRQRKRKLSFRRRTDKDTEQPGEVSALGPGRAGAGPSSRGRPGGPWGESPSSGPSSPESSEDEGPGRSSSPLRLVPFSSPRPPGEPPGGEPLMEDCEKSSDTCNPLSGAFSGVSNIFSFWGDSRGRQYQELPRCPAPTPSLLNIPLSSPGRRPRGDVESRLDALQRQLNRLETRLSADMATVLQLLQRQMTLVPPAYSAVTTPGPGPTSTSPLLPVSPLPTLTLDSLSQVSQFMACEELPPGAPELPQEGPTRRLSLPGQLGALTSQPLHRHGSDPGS

Compound	hERG current change (%, negative = inhibition) at 1uM [%]
CCC1CCCCN1C(=O)COc1ccc2c(c1)OCO2 (stereo not drawn)	13.6
COCCCNC(=S)Nc1ccc(CC(=O)O)cc1	11.7
O=C(CCC(=O)Nc1ccccc1Cl)N/N=C1\CCCc2ccccc21	20.4
Cc1ccc(-c2cc(C(=O)Nc3ccc(S(=O)(=O)Nc4nc(C)cc(C)n4)cc3)c3ccccc3n2)cc1	2.93
CCN1C(C)=C(C)S/C1=C1\SC(=S)N(C2CCCCC2)C1=O	9.55
COc1cccc(CNCc2cccc(Br)c2)c1OC.O=C(O)C(=O)O	8.57
CC(C)CC(=O)Nc1ccnn1C1CCN(C(=O)c2ccc(Cl)cc2F)CC1	-6.67
CC(C)c1ccc(CN2CCN(S(=O)(=O)c3ccc(Cl)s3)CC2)cc1	7.97
Cc1c(NC(=S)NCc2ccc(F)cc2)cccc1[N+](=O)[O-]	12.8
COc1ccccc1OCC(=O)Nc1ccc2c(c1)OCCO2	10.8
COc1ccc(Br)cc1CN(C)C(=O)CNC(=O)c1ccc2ccccc2c1	9.28
O=C(NC(=S)N1CCCC1)c1ccccc1F	0.177
CCNC(=O)NC(C(=O)OC)C12CC3CC(CC(C3)C1)C2 (stereo not drawn)	8.32
CC(C)(C)C(=O)NC(NC(=S)Nc1ccc(S(N)(=O)=O)cc1)C(Cl)(Cl)Cl (stereo not drawn)	7.63
CC(C)(C)C1COc2ccccc2N1C(=O)c1ccccc1Cl (stereo not drawn)	13.1
O=C(NCc1cccs1)C1CC(c2ccc(Cl)cc2)=NO1 (stereo not drawn)	12.8
O=C(COC(=O)CN1C(=O)NC2(CCCC2)C1=O)Nc1c(Cl)cccc1C(F)(F)F	9.1
CCOC(=O)NC(Nc1ccc(C)cn1)(C(F)(F)F)C(F)(F)F	11
N#Cc1ccccc1NC(=S)Nc1ccc(F)cc1	13.3
CCCCNC(=O)CO/N=C(\C)c1cc2ccccc2o1	10.8
C/C(CC(=O)Nc1ccc(Cl)cc1Cl)=N\NC(=O)C(=O)N1CCCC1	8.7
O=C1CCCCCN1CP(=O)(O)CN1CCCCCC1=O	12.9
Cc1cc(N2C(=O)Cc3ccccc3C2=O)ccc1C(C)C	6.38

Compound	hERG current change (%, negative = inhibition) at 1uM [%]
O=C(Oc1ccccc1-c1nnco1)c1ccc(Cl)cc1	6.05
COc1ccc(N2CCN(C3CCCN(S(=O)(=O)c4ccccc4)C3)CC2)cc1 (stereo not drawn)	7.26
Cc1c(CC(=O)O)c(=O)oc2c(C)c(OCc3ccccc3Br)ccc12	8.27
COc1ccc(C(=O)NC2CCN(C(=O)NC3CCCCC3)CC2)cc1	10.5
CCOc1ccc(Br)cc1S(=O)(=O)Nc1ccc(C(=O)OC(C)C(=O)N(C)c2ccccc2)cc1 (stereo not drawn)	9.85
O=c1[nH]c2cccnc2c2ccsc12	11.5
Nc1sc2c([n+]1CCCS(=O)(=O)[O-])CCCC2	12.5
CC1CCCCN1C(=O)Cn1nnc(-c2cccnc2)n1 (stereo not drawn)	14.5
CCOc1cc2c(cc1OCC)C(c1ccccc1)N(c1ccc(C(=O)O)cc1)C(=O)C2 (stereo not drawn)	7.71
O=C(Nc1cccc(-c2cccc(F)c2)c1)C1CCN(C2CCOCC2)CC1	-67.8
O=[N+]([O-])c1cccnc1N1CCN(c2ccc(F)cc2)CC1	-0.886
CC(C)C(=O)Nc1ccc(S(=O)(=O)N2CCC(c3nc4ccccc4[nH]3)CC2)cc1	12
CCCCCCC(=O)Nc1nc(C)c(-c2csc(Nc3cc(OC)ccc3OC)n2)s1	9.91
Cl.c1cc(CNC2C3CC4CC(C3)CC2C4)ccn1 (stereo not drawn)	5.52
COc1ccccc1CNC(=O)c1cccc(N(C)C)c1	5.63
Clc1ccc(OCc2nc(-c3ccccn3)n[nH]2)cc1	-8.04
CCC(=NCCN1CCCCC1)c1c(O)n(C)c(=O)n(C)c1=O	-3.36
COc1cc(C(=O)NNC(=S)NC(=O)c2ccc(F)cc2)cc(OC)c1OC	10.2
Cc1cc(C(F)(F)F)nn1CC(=O)Nc1ccc(Br)c2cccnc12	-7.38
Nc1c([N+](=O)[O-])c(=O)oc2ccccc12	13.2
COc1cc(C(=O)Nc2ccc(Oc3ncnc4sc(-c5ccccc5)cc34)cc2)cc(OC)c1OC	12.9
S=C(NCCCN1CCOCC1)N(Cc1ccccc1)Cc1ccccc1	-0.376

Reference: publication PMC4336329 (PLoS ONE, 2015)
